About 11,000 (3.5%) of roughly 310,000 compounds were called active. This list was built around the results that the source calls inconclusive (neither active nor inactive); the mix of calls is not that of the screen. The call rests on the fitted dose curve; in most records, active means well fitted inhibition curve with a large enough effect; inconclusive means small, poorly fitted or top-dose-only effect, or effect the other way; inactive means flat fitted curve, though single readings scatter. No potency is given beside an inconclusive call; the fits are too rough.
Test: VP16 counterscreen qHTS for inhibitors of ROR gamma transcriptional activity;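 further: Gal4-VP16 expression switched on by copper sulfate through the metallothionein promoter; nearly all actives have a fitted effect of over 50% in size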
Conditions: Drosophila S2 Gal4-VP16 UAS-luciferase, luminescence, 20 h; series mostly up to 53.6 µM
Potency means the concentration at half of the fitted maximal effect; tags describe the fitted curve by direction and shape.

Structure (SMILES)	Potency
N/C(=N\OC(=O)COc1ccccc1Cl)c1ccc(Cl)cc1	inconclusive [activator, single point]
COc1ccc(NC(=O)C(NS(=O)(=O)c2ccc3c(c2)CCCN3C(C)=O)C(C)C)c(OC)c1 (centres undefined)	inactive
CCOc1cc(CNc2ccc3cn[nH]c3c2)ccc1OC	inactive
O=C(CSc1nnc(Nc2ccccc2)s1)Nc1ccc(S(=O)(=O)N2CCOCC2)cc1	inconclusive [inhibitor, single point]
COc1ccccc1NC(=O)CCCn1c(=S)[nH]c2ccccc2c1=O	inconclusive [inhibitor, single point]
O=C1C=C(Nc2cccc3cccnc23)c2ccccc2C1=O	active: 10 µM
CCN1/C(=C\C=C(C(C)=O)C(C)=O)Sc2ccccc21	inactive
COc1ccc(C2(C)NC(=O)N(CC(=O)NCCC3=CCCCC3)C2=O)cc1OC (centres undefined)	inactive
CCc1ccccc1OCC(=O)Nc1nc(-c2cccnc2)cs1	active: 11.2 µM
Cc1cc(C)n(-c2cc(Oc3ccccc3)ncn2)n1	inactive
COc1cccc(Nc2nnc(SCc3nc4ccccc4s3)s2)c1	inconclusive [activator, single point]
Cc1ccc(C(=O)N(Cc2ccccc2)C(C)(C)C)cc1C	inactive
COc1ccc(C(=O)CC(=O)c2ccc(OC)cc2)cc1	active: 17.8 µM
COc1cccc(NC(=S)N(CCN2CCCCC2)Cc2ccco2)c1	inactive
Cc1[nH]n(-c2cccc(Cl)c2)c(=O)c1-c1ccc(Cl)cc1	inconclusive [inhibitor, single point]
COc1cccc(CNc2ncc(-c3ccccc3)n2C)c1	inactive
Cc1cccc(CNc2ccnc(-c3ccc(N(C)C)cc3)n2)c1	inconclusive [inhibitor, single point]
Cc1ccc(Cl)cc1NC(=S)N(CCCN1CCN(C)CC1)Cc1ccco1	inactive
Cc1ccc(C(=O)O/N=C\c2ccc(N3CCCCC3)c([N+](=O)[O-])c2)cc1	inactive
COc1ccc(Cl)cc1-c1n[nH]c(=S)n1C1CCCCC1	active: 7.94 µM
COc1ccc(NC(=S)N/N=C2\CC(C)(C)Oc3ccc(O)cc32)cc1	active: 5.62 µM
COc1ccccc1C(=O)Nc1ccc(N2CCCCC2)cc1	inactive
O=C1C(Nc2ccccc2)=C/C(=N/S(=O)(=O)c2cccs2)c2ccccc21	active: 5.01 µM
CCCCOc1ccc(-c2csc(N)n2)cc1[N+](=O)[O-]	inconclusive [inhibitor, full curve, poor fit]
